# About 2,200 (0.71%) of roughly 310,000 compounds showed an effect of 50% or more. The effect is printed as a negative number. Some of the results follow.
# Molecular target: human ether-à-go-go-related gene (hERG) potassium channel (human, UniProt Q12809)
# Assay: primary screen, population patch clamp on CHO cells stably expressing hERG
# Chain of human ether-à-go-go-related gene (hERG) potassium channel (Q12809 whole entry, looked up): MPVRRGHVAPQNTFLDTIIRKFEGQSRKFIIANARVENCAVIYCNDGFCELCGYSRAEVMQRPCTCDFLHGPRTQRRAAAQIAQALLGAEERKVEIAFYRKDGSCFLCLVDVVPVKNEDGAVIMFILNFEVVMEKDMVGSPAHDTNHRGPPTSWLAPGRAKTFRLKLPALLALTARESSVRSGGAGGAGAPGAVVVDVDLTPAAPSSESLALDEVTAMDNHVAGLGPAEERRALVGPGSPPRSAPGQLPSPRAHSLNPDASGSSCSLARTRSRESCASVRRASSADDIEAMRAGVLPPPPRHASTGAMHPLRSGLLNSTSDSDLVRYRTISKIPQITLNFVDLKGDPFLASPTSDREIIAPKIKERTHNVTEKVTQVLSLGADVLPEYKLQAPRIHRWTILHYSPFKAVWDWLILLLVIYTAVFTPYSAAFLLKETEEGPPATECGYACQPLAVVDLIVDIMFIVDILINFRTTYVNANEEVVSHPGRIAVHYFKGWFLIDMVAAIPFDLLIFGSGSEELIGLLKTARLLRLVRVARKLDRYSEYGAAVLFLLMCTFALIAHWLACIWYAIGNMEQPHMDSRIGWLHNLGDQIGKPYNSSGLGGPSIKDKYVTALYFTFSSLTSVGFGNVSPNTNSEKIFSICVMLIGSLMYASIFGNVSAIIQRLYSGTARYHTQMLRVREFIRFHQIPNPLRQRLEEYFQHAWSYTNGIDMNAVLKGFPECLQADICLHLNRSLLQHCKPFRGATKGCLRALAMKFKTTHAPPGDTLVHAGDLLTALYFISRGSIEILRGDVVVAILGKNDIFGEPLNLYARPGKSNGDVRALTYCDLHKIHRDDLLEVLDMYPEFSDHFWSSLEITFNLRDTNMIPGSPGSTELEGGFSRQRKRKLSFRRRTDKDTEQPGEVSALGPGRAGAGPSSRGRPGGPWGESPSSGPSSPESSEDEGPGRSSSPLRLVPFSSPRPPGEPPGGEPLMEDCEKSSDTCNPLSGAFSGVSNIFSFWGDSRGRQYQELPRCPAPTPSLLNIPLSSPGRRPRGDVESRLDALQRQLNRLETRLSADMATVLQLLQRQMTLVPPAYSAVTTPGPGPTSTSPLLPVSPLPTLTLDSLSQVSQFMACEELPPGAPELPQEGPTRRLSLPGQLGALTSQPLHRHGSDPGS
row,Structure (SMILES),"hERG current change (%, negative = inhibition) at 1uM [%]"
1,CCOC(=O)C1(C)NC(c2ccc(O)cc2)C2C(=O)N(c3ccccc3)C(=O)C21 (stereo not drawn),18.6
2,O=C(O)C(=O)O.OC(COCc1cccs1)CN1CCN(c2cccc(Cl)c2)CC1 (stereo not drawn),-13.4
3,CC(Cc1ccccc1)NC(=O)CN1C(=O)c2ccccc2S1(=O)=O (stereo not drawn),5.88
4,COc1ccc(OCC#CCNC(C)(C)C)cc1.O=C(O)C(=O)O,13.3
5,Cc1ccc(S(=O)(=O)N(C)C)cc1NC(=O)COC(=O)/C=C/c1cccs1,9.04
6,Cc1cnc(NC(=O)CN2CCN(c3ccccn3)CC2)s1,3.32
7,Cc1c(Cl)cccc1NC(=S)N1CCN(Cc2ccc3c(c2)OCO3)CC1,16.6
8,CN(C)CC(C)(C)CNC(=O)C1CCN(CCCc2ccccc2)CC1.O=C(O)C(=O)O,14.7
9,CC(C)CC1(C)NC(=O)N(CC(=O)Nc2ccc3c(c2)CCC3)C1=O (stereo not drawn),-4.58
10,COc1ccc(CCNC(=O)CSc2nnc(C(C)N(C)C)n2Cc2ccccc2)cc1OC (stereo not drawn),2.3
11,COc1ccc(/C=C2\SC(=O)N(CCNC(=O)C3CC4C=CC3C4)C2=O)cc1 (stereo not drawn),1.01
12,COc1ccc(-c2csc(NC(=S)NC(=O)/C=C/c3ccco3)n2)cc1Br,27.8
13,COc1ccc2cc3c(N)nn(C(=O)c4ccccc4Cl)c3nc2c1,5.88
14,O=C(C1=C(O)C(=O)N(CCN2CCOCC2)C1c1ccc([N+](=O)[O-])cc1)c1cccs1 (stereo not drawn),16.6
15,Cn1cnc([N+](=O)[O-])c1Cl,11
16,COC(=O)C1=C(c2ccc(OCc3ccccc3)cc2)C[C@@H]2CC[C@H]1N2C(=O)NCc1ccc(N(C)C)cc1,-0.509
17,O=[N+]([O-])c1ccn(-c2nc(-c3ccccc3)cc(C(F)(F)F)n2)n1,-25.8
18,CCC(C)NC(=O)c1ccc(NC(=O)C2CCCO2)cc1 (stereo not drawn),3.93
19,Cc1ccc(CNC(=O)CCCn2nc(C)c3c(C)n(-c4ccccc4)nc3c2=O)cc1,16.1
20,COc1ccc(-c2n[nH]c(=S)n2-c2cc(OC)ccc2OC)cc1,8.94
21,O=C(CSc1n[nH]c(=O)n1-c1ccccc1)Nc1ccccc1C(F)(F)F,14.8

row,Structure (SMILES),"hERG current change (%, negative = inhibition) at 1uM [%]"
1,O=C(NCc1ccc(Cl)cc1)c1ccc(CNc2c(N3CCOCC3)c(=O)c2=O)cc1,4.11
2,Cc1ccc(C(=O)Nc2ccc(N3CCOCC3)cc2N2CCOCC2)cc1,12.7
3,COc1cc2oc3ccccc3c2cc1N(CC(=O)N(C)C)S(=O)(=O)c1ccc(C)cc1,9.73
4,C[C@H]1CC[C@H]2C(=O)N[C@H](Cc3ccccc3)C(=O)N2[C@@H]1c1ccccc1,28.8
5,Nc1ncnc2c1C1(CCCCC1)Cc1ccccc1-2,-1.87
6,COc1ccc(CCNC(=O)CCC(=O)n2ncc3ccc(Cl)cc32)cc1OC,8.6
7,CCCCC(=O)Nc1ccc2c(c1)nc(CCN1CCOCC1)n2C,5.44
8,CC1(c2nnc(Cc3ccccc3)o2)CC(c2ccccc2Br)=NO1 (stereo not drawn),10.3
9,O=C(Nc1nnc(CCc2ccccc2)s1)C1CCCO1 (stereo not drawn),4.31
10,Cc1ccc(C2CC(c3ccccc3)=NN2C(=O)CSc2nnc(-c3ccncc3)n2C)o1 (stereo not drawn),30.4
11,CC(NC(=O)c1cccs1)C(c1cccs1)N1CCN(Cc2ccccc2)CC1 (stereo not drawn),-13.4
12,C[N+]1(CCn2ccc3ccccc32)CCCCC1.[I-],15.5
13,Cc1ccc(C(C#N)c2ccc(C(=O)c3ccc(F)cc3)cc2)cc1 (stereo not drawn),17.6
14,O=C(NC(=O)N1CCN(C(c2ccccc2)c2ccccc2)CC1)c1ccccc1,2.03
15,CCOC(=O)c1cc(-c2csc(-c3ccc(C(C)(C)C)cc3)n2)on1,3.69
16,O=C1CN(C(=O)COC(=O)/C=C/c2ccc(S(=O)(=O)N3CCOCC3)cc2)c2ccccc2N1,10.2
17,O=C(Nc1ccccc1C(=O)NC(Cc1c[nH]c2ccccc12)C(=O)O)c1ccco1 (stereo not drawn),3.31
18,S=C1NCCNC(=S)NCCOCCOCCOCCN1,10.5
19,O=C(N/N=C/c1ccccn1)c1cc(-c2cccc3ccccc23)n[nH]1,5.17
20,CC1CCCC(C)N1C(=O)CSc1ncccn1 (stereo not drawn),19.3
21,Cn1cnc([N+](=O)[O-])c1Sc1ncn[nH]1,15.7

# Reference: article PMC4336329 (PLoS ONE, 2015)
